Measurements as given in patent US20210038566A1, “USE OF MODULATORS OF NEET PROTEINS FOR THE TREATMENT OF INFECTION” (ENYO PHARMA, priority 2018, published 2021).

Tested on: Zika (ZIKV strain MR766)
Test: microbe, parasite or virus in culture
Settings: Huh-7, 48 h, read-out: IC50 Zika

With `COc1ccc(C(=O)Nc2sc3c(c2C(=O)O)CCC(C)(C)C3)cc1OC` [Compound #18] as the molecule, how does the IC50 read?
Its IC50 is 3 µM.
